These results are taken from ChEMBL document CHEMBL1156829.

SMILES strings stand for the structures. Whole data set: some 5,400 compounds, median “IFI” near 2, cut for the highest 2% near 22. This is one part of the list.

A short description of this assay: NOVARTIS: Inhibition Frequency Index (IFI) - the number of HTS assays where a compound showed > 50% inhibition/induction, expressed as a percentage of the number of assays in which the compound was tested. It is filed as functional.
`CCC(=O)CC(O)C[C@@H](C)C[C@H](NC(=O)[C@@H]1C[C@H](C)CN1C(=O)/C=C/[C@@H](C)CC)C(=O)N[C@H](C(=O)NC(C)(C)C(=O)N[C@@H](CC(C)C)C(=O)N[C@@H](CC(C)C)C(=O)NC(C)(C)C(=O)NC(C)(C)C(=O)NCCC(=O)N[C@@H](C)CN(C)C)[C@H](O)C(C)C` (stereo partly specified) came in with an IFI of 12.1%.

With `OC(CN1CCOCC1)Cn1cnc2c(SCc3ccccc3)ncnc21` (stereo unspecified), the IFI came to 0%. Consider `O=C(CSc1ccccc1)NCCCCNc1ccnc2cc(Cl)ccc12`, for which the IFI worked out at 3.74%. Turning to `COC(=O)c1ccc(Nc2nc(NCc3ccco3)c3ccccc3n2)cc1`, the IFI came to 0%.

Consider `OC(CNC1CCCCC1)Cn1c2ccc(Cl)cc2c2cc(Cl)ccc21` (stereo unspecified), for which the IFI was 6.98%. Turning to `Cc1cc(/C=C2/SC(=Nc3ccccc3)NC2=O)c(C)n1-c1cccc([N+](=O)[O-])c1`, the IFI turned out to be 0%. In turn, `COc1cccc(NC(=O)c2ccc3oc(=O)c(S(=O)(=O)c4ccccc4)cc3c2)c1` had an IFI of 9.09%. In turn, `O=C1C(NC2CCCC2)=C(N2CCOCC2)C(=O)c2ccccc21` displayed an IFI of 0%. As to `OC(CN1CCN(Cc2ccccc2)CC1)Cn1c2ccc(I)cc2c2cc(I)ccc21` (stereo unspecified), the IFI came to 7.55%. For the molecule `CC(=O)c1cccc(NC(=O)NC2CC3CCCC(C2)N3CCc2ccccc2)c1` (stereo unspecified), the IFI is 1.27%. For the molecule `CC1CCN(C(=O)CSc2nc(NCc3ccccc3)c3ccccc3n2)CC1`, the IFI worked out at 0%. Molecule `COc1ccc(-c2ncc([C@@H]3C[C@H]4CN(c5ccccc5)C(=O)[C@]45CCCN35)cn2)cc1` displayed an IFI of 7.69%.

As for `O=C1CC(N2CCCCCC2)C(=O)N1c1ccc(N2C(=O)CC(N3CCCCCC3)C2=O)cc1` (stereo unspecified), the IFI was determined as 0%.

For `O=C1C2C(C(=O)N1c1cccc3ccccc13)C1C=CC2C12CC2` (stereo unspecified), the IFI turned out to be 0%. The molecule `CCOC(=O)C1=C(C)NC2=C(C(=O)CC(c3ccc(OC)c(OC)c3)C2)C1c1ccccc1F` (stereo unspecified) gave an IFI of 2.35%. Regarding `O=[N+]([O-])c1ccc(C=NNc2nc(Nc3ccccc3)nc(Nc3ccccc3)n2)o1`, the IFI came out at 6.47%.

`COc1ccc(C2CC(=O)C3=C(C2)NC(C)=C(C(=O)OC(C)C)C3c2ccc([N+](=O)[O-])cc2)cc1OC` (stereo unspecified) displayed an IFI of 4.3%.

`CCN(CC)S(=O)(=O)c1ccc(-c2csc(Nc3ccc(C)c(C)c3)n2)cc1` had an IFI of 4.71%. Under `NC12CC3CC(C1)CC(SSC14CC5CC(CC(N)(C5)C1)C4)(C3)C2` stands 8.2%; under `Fc1cccc2sc(Nc3nc(-c4ccccn4)cs3)nc12`, 16.7%; under `CCOc1ccc(NC(=O)C(C)CSc2nc3ccc(NC(=O)CC)cc3s2)cc1` (stereo unspecified), 1.18%. In the case of `O=C(/C=C/c1ccccc1)NNC(=O)c1cccnc1`, the IFI was 2.24%. In the case of `Cc1nc2cc(-c3ccc(Br)cc3)nn2c(O)c1C`, the IFI came to 0%. `O=C(NCCCN1CCOCC1)c1c[nH]c2ccc(S(=O)(=O)N3CCc4ccccc43)cc2c1=O` showed an IFI of 0%. For `CC(=O)N(C1=C(N2CCCC2)C(=O)c2ccccc2C1=O)c1ccc(F)c(F)c1`, the IFI is 0%. Under `O=C1OC(c2ccccc2)=NC1=C(Cl)Cl` stands 0%.

Molecule `COc1cc(O)c2c(=O)cc(CCOC(=O)Nc3ccccc3)[nH]c2c1` came in with an IFI of 1.22%. On to `Cc1cc(C)cc(NC2=C(c3ccccc3)C(=O)c3ccccc32)c1`, for which the IFI was 0%. On to `COc1ccc(CN2CC(=O)N(c3ccc(Cl)cc3)C2=S)cc1OC`, for which the IFI worked out at 0%. Turning to `CN(C)c1ccc(N2C(N)=NC(N)=NC2(C)C)cc1`, the IFI turned out to be 0%. As to `Oc1ccc(Br)cc1CN1CCN(c2ccccn2)CC1`, the IFI amounted to 0%. Consider `Fc1ccc2[nH]c3c(N4CCN(C(c5ccccc5)c5ccccc5)CC4)ncnc3c2c1`, for which the IFI was 14%. Under `COc1ccc(-c2noc(-c3cccc(I)c3)n2)cc1OC` stands 0%.

`CCCCCc1ccc(-c2ccc(/C(C=[N+](C)C)=C\N(C)C)cc2)cc1` displayed an IFI of 14.3%. `CCCCC(=O)NC(c1cccc([N+](=O)[O-])c1)c1ccc2cccnc2c1O` (stereo unspecified) displayed an IFI of 8.33%. Under `CC[n+]1c(/C=C/C=C2\N(C)c3ccccc3C2(C)C)n(-c2ccccc2)c2ccc(Cl)cc21` stands 21.4%; under `COc1ccc(C2SCCN2S(=O)(=O)c2cccc([N+](=O)[O-])c2)cc1OC` (stereo unspecified), 0%. Consider `COc1ccc(OC)c(C2CC(=O)C3=C(C2)NC(=O)CC3c2ccc(OC)c(OC)c2)c1` (stereo unspecified), for which the IFI worked out at 0%. As to `Cc1nc(-c2nc3c(s2)CN(C(=O)COc2ccc(Cl)cc2)CC3)cs1`, the IFI worked out at 4.17%. Molecule `O=C(CN1CCCC1)Nc1c2c(nc3c1CCC3)CCC2` showed an IFI of 0%. Regarding `Cc1onc(-c2ccccc2)c1C(=O)N1CCC(CNc2c(-c3ccoc3)nc3ccccn23)CC1`, the IFI is 4.17%. Take `COc1cccc(NC(=O)C2C3C=CC4(O3)C2C(=O)N(Cc2ccc3c(c2)OCO3)C4C(=O)NC2CCCCC2C)c1` (stereo unspecified): the IFI was 0%. In turn, `Cc1nn(CC(O)Cn2c3ccc(Br)cc3c3cc(Br)ccc32)c(C)c1Br` (stereo unspecified) returned an IFI of 3.49%. As for `COc1ccc(C(OCC(=O)N2CCN(Cc3ccccc3)CC2)c2ccccc2)cn1` (stereo unspecified), the figure is 0.971%; as for `CC1CC2=C(CC1CNCCCN(C)C)C(C)(C)CCC2` (stereo unspecified), 0%; as for `CCCN(CCC)CC(O)COc1ccccc1C(=O)Nc1ccccc1` (stereo unspecified), 1.51%.

As for `CC1CCCC(NC(=O)C2N(CCN3CCCCC3C)C(=O)C3C(C(=O)Nc4cccc(Cl)c4)C4C=CC32O4)C1C` (stereo unspecified), the IFI came out at 0%. In turn, `CCOC(=O)C[n+]1cc(CC)sc1N` came in with an IFI of 0%. `c1cncc(-c2cc(NCCCN3CCOCC3)nc(-c3ccncc3)n2)c1` yielded an IFI of 0%. `COC1C(OC2OC(C)C(O)C(C)(O)C2OC)c2c(cc3c(c2O)C(=O)c2c(ccc4c2OC2OC4(C)C(OC4CC(C)([N+](=O)[O-])C(OC5OC(C)C(O)C(C)(O)C5OC)C(C)O4)C(N(C)C)C2O)C3=O)CC1(C)O` (stereo unspecified) returned an IFI of 10.5%. In turn, `COCCOC(=O)NCc1ccc(Nc2c(C(C)(C)C)nc3cnccn23)cc1` gave an IFI of 1.37%. As for `Oc1c2c(nc3cc(-c4ccc(-c5ccccc5)cc4)nn13)CCCC2`, the figure is 0%. `O=C(NCCc1ccccc1)C1CCC(Cn2c(=S)[nH]c3ccccc3c2=O)CC1` (stereo unspecified): the IFI was determined as 0%.

In turn, `COc1ccc(CN(Cc2cc3cccc(C)c3nc2N2CCCC(O)C2)C(=O)c2ccc(OC)c(OC)c2)cc1` (stereo unspecified) returned an IFI of 2.94%. The molecule `CN(C)c1cc[n+](CC(=O)c2ccc(Br)cc2)cc1` returned an IFI of 0%. As for `COc1ccc(S(=O)(=O)N2CCN(C(=S)NC3CCCCC3)CC2)cc1`, the figure is 0%; as for `CN(CCCNc1ccnc2cc(Cl)ccc12)C(=O)c1ccc(Cl)c(Cl)c1`, 1.87%; as for `CCOc1ccc(C(=O)C[N+]2=C(C)c3ccc(C)n3CC2)cc1`, 0%. In turn, `COc1ccc(CN(Cc2cc3cccc(C)c3[nH]c2=O)C(=S)NC2CCCCC2)cc1` gave an IFI of 3.6%. `CCOC(=O)C1=C(C)N=c2sc(=Cc3c4ccccc4cc4ccccc34)c(=O)n2C1c1cc(OC)ccc1OC` (stereo unspecified) gave an IFI of 0%.

With `O=C1N(Cc2cc3ccccc3s2)CC2CN(Cc3ccc(F)c(F)c3)CCN12` (stereo unspecified), the IFI stood at 1.39%.

The molecule `CCc1nc2ccc(NC(=O)c3ccncc3)cc2c(=O)n1Cc1cccc(OC)c1` yielded an IFI of 5.13%. Turning to `COC(=O)C1=C(C)NC2=C(C(=O)CC(c3ccc(OC)c(OC)c3)C2)C1c1ccc(Br)cc1` (stereo unspecified), the IFI turned out to be 4.88%.

On to `COc1cccc(NC(=O)c2sc3ncn(CC(=O)N4CCN(c5ccccn5)CC4)c(=O)c3c2C)c1`, for which the IFI is 0%.

Turning to `Cc1n[nH]c2c1C(c1ccc([N+](=O)[O-])cc1)N(c1ccc(Br)cc1)C2=O` (stereo unspecified), the IFI came to 0%. Turning to `CN(Cc1ccsc1)C(=O)CCc1nnc(CCCc2ccccc2)o1`, the IFI was found to be 0%. Turning to `CCCCCN(CC(=O)Nc1cc(C(C)(C)C)nn1-c1ccc(Cl)c(Cl)c1)C(=O)c1cccc(OC)c1`, the IFI turned out to be 1.89%. `CCCCCc1ccc(C(=O)N(C)CCCNc2ccnc3cc(Cl)ccc23)cc1` showed an IFI of 7.48%. `CC1=C(C(=O)OC(C)C)C(c2ccc([N+](=O)[O-])cc2)C2=C(CC(C)(C)CC2=O)N1` (stereo unspecified): the IFI amounted to 0%. As to `Clc1ccc2c(N3CCC(n4cccc4)CC3)ccnc2c1`, the IFI was found to be 1.68%.

As to `CC(C)OC(=O)c1cccnc1SCC(=O)Nc1ccc(C(F)(F)F)cc1Cl`, the IFI worked out at 0%. The molecule `C[n+]1ccc(/C=C/c2ccc(Br)cc2)cc1` gave an IFI of 5.46%. Under `CCC1(C)CC(CCNCc2ccccc2O)(c2ccc(OC)cc2)CCO1` (stereo unspecified) stands 1.89%; under `Cc1ccc(Nc2nc(NCCO)c3ccccc3n2)cc1C`, 0%. As to `Clc1ccc(-c2c[n+](CCc3ccccc3)c3n2CCC3)cc1`, the IFI was found to be 5%. `COc1cccc(-c2ccc(O)c(CN3CCCCC3)c2)n1` returned an IFI of 1.72%.

As for `COc1ccccc1NC(=S)N1CCN(c2ccc([N+](=O)[O-])cc2)CC1`, the IFI is 0%. For the molecule `COc1ccc(-n2c(COc3cccc4ccccc34)nnc2SC)cc1`, the IFI is 2.83%. Molecule `C/N=C(\N)Nc1nc(C)c2cc(OC)ccc2n1` yielded an IFI of 3.62%. Under `CCOC(=O)C1=CN(c2cc(C)ccc2C)C=C(C(=O)OCC)C1c1ccccc1OC` stands 4.94%. In turn, `COc1ccccc1C(c1c(C)n[nH]c1O)c1c(C)n[nH]c1O` returned an IFI of 0%. `N[C@@H](COP(=O)(O)O)C(=O)O`: the IFI turned out to be 0%.

Molecule `COc1ccc(C2C(C(N)=O)=C(C)Nc3ncnn32)cc1OC` (stereo unspecified) registered an IFI of 0%. Molecule `COc1ccc(Nc2nc3nonc3nc2NN=Cc2cc(Cl)ccc2O)cc1` registered an IFI of 7.14%.

Molecule `COc1ccc(Nc2nc(NCc3ccco3)c3ccccc3n2)cc1` registered an IFI of 12%.

Molecule `Cc1nc2c(C#N)c(C)nn2c(C)c1Cc1cccc(F)c1` yielded an IFI of 0%. Molecule `Cc1cc(Cl)c(S(=O)(=O)N2CCCC2)cc1OCC(=O)NC1CCCCC1` yielded an IFI of 0%. `COc1cc(C=NNc2nc3ccccc3[nH]2)cc(OC)c1OC` yielded an IFI of 0%.

Molecule `COc1ccc(NC(=O)CCn2c(=S)oc3ccccc32)c([N+](=O)[O-])c1` came in with an IFI of 0%.

In turn, `CC(C)(C)OC(=O)NCC(=O)Oc1cc2oc(=O)cc(-c3ccccc3)c2cc1Cl` yielded an IFI of 0%.

As to `CN(c1ccccc1)S(=O)(=O)c1ccc(C(=O)Nc2ccc(-c3nc4ccccc4[nH]3)cc2)cc1`, the IFI was determined as 7.69%. As for `Cc1cc(C)n(-c2cc(NN=Cc3cc(Br)ccc3O)nc(C)n2)n1`, the figure is 0%; as for `COc1cccc(OC)c1C(=O)Nn1c(-c2cccc(C)c2)nc2ccccc2c1=O`, 1.16%. Molecule `N#Cc1c(N)n(CCc2ccc(Cl)cc2Cl)c2nc3ccccc3nc12` showed an IFI of 3.12%.

Turning to `Clc1cccc(Cl)c1C[n+]1ccc2ccccc2c1`, the IFI was determined as 7.69%. For `CC(C)N1CCCC(C(=O)Nc2ccc(-c3nc4ccccc4[nH]3)cc2)C1` (stereo unspecified), the IFI turned out to be 7.69%.
